# Results from ChEMBL document CHEMBL4888484, “Replenishing the malaria drug discovery pipeline: Screening and hit evaluation of the MMV Hit Generation Library 1 (HGL1) against asexual blood stage Plasmodium falciparum ,using a nano luciferase reporter read-out” (2022).
# Screen size: about 150,000 compounds; about 540 (0.36%) showed an effect of 50% or more. The list shows a part of the results.
# System: Plasmodium falciparum
# Assay: Primary screen in NF54 nanoGlo assay, in single point, at 2uM, 72h; a lower Z score goes with more inhibition
# Format: functional, Erythrocyte
# Conditions: timepoint 72 hour
SMILES,% Inhibition [%],Z score
Cc1ccccc1C1(CNCc2c(C)noc2C)CC1,-4,0.51
OCc1ccnc(-c2ccc(OCc3ccccc3)nc2)c1,-1,0.18
COCCOCC(=O)Nc1cccc(Cl)c1C,-12,1.24
O[C@H]1CCC[C@@H]1n1nc(C(F)(F)F)cc1C1CC1,-14,2.06
Cc1nc(C)n(CCNC(=O)C[C@H]2COCCN2Cc2ccc(C)o2)n1,-3,0.33
O=C(c1cccnc1)N1CC[C@@H]2OCc3cnnn3[C@@H]2C1,-8,1.42
C[C@@H](C(=O)O)N(C)CCc1ccc2c(c1)CCO2,-1,0.08
O=C(c1sc2ccccc2c1Cl)N1CCC(Nc2nccs2)CC1,-9,1.52
CN1CC[C@H](N(C)C(=O)c2cnc(-c3ccc4c(c3)OCO4)nc2Nc2ccccc2F)C1,-7,0.87
O=C(c1cccc(Oc2ccc(F)cc2)c1)N1CCN(c2cccnc2)C(=O)C1,17,-2.12
Cc1cc(CNC(=O)NC(C)(C)C)on1,-6,0.99
Cc1oc(-c2cc(C(F)(F)F)on2)cc1S(=O)(=O)N[C@H]1CCNC1=O,-6,0.99
O=C(NCCCc1cccnc1)[C@H]1CCS(=O)(=O)C1,-4,0.71
COC(=O)Nc1ccc(O[C@@H](C)c2ncc(Br)cn2)cc1,21,-2.67
CC[C@H](NS(=O)(=O)c1cc(Cl)cnc1N)c1nccs1,8,-1.08
NC(=O)[C@@H]1CN(C(=O)c2ccc(Br)cc2Oc2ccc(F)cc2)CCO1,32,-4.68
CN(c1nc(Cn2cnc(C#N)c2C#N)cs1)C1CC1,-2,0.25
CC1CN(Cc2cnc3ccnn3c2)CC(C)[S+]1[O-] (centres undefined),-7,1.11
O=C(NC1CC=CCC1)C1CC(O)CN1C(=O)Cc1ccccc1F (centres undefined),0,-0.07
O=C(Cn1nc2c(N3CCOCC3)nc3ccccc3n2c1=O)Nc1cccc(Br)c1,-5,0.69
C=CCN1CC[C@H](N(C)C(=O)Nc2cccc(OCCF)c2)C1=O,-11,1.22
CN(C)c1cccc(C(=O)N2CCN(C(=O)c3nnn4c3CO[C@H](c3ccc(Cl)cc3)C4)CC2)c1,-19,1.79

SMILES,% Inhibition [%],Z score
CC[C@H]1CN(Cc2noc(C(C)C)n2)CCO1,-10,1.92
Cc1ccc2nc(-c3ccc(C)o3)c(NC(=O)c3cccc(Br)c3)n2c1,-8,1.12
C[C@H]1CCCCN1C(=O)CCNc1ccc(Cl)cn1,0,-0.07
Cc1cc(C)c2c(CN(C)C[C@H]3COCCO3)cc(C)nc2c1,-10,1.97
CCc1nn(C)c(Cl)c1CN1C[C@H]2CC[C@@H](C1)N(CC1CC1)C2,-6,0.7
COc1ccc(N2CCN(C(=O)Cn3ncccc3=O)CC2)cc1,-2,0.25
O=S(=O)(N1CCCC1)N1CCCN(CCc2ccccn2)CC1,1,-0.14
CNC(=O)CN(C)C(=O)c1csc(NC(C)=O)n1,-10,0.93
Cc1ncc(-c2nc3c(cnn3C[C@@H]3CC=CCC3)[nH]2)n1C,-3,0.54
O=C(c1cnn2ccncc12)N1CC[C@H](C(F)(F)F)C1,-22,2.36
Oc1ccc(Cl)c(CN2CCC[C@H]2c2ncn[nH]2)c1,-3,0.46
OCCn1nc(C2CCCC2)nc1Cc1cccnc1,-17,1.69
Cn1cnnc1NC(=O)Cc1cccc(Br)c1,2,-0.26
Cn1cc(CN2CCC(C(=O)NC3CCCC3)CC2)c2cc(Cl)ccc21,0,0.02
Cc1ccc(NC(=O)[C@@H]2CNC[C@H](C(=O)NCc3ccc(C)c(C)c3)C2)cn1,3,-0.45
FC(F)(F)c1ccc2sc(N3CCOC[C@H]3c3nnc(-c4ccccc4)o3)nc2c1,-7,0.87
CC(C)[C@H](NC(=O)N(C)Cc1ccnc2ccccc12)C(=O)O,-8,1.68
C[C@@H](c1nnc(-c2ccc(F)cc2)o1)N(C)Cc1ccco1,4,-0.83
C[C@H]1CCCN(C(=O)c2nn(C)c3ccccc3c2=O)C1,-7,0.84
CNC(=O)[C@@H](Nc1nccc(C)n1)C(C)C,-15,1.52
CC(C)C[C@H]1CCCCCN1CC(=O)NCC#N,2,-0.26
COc1ccc([C@H](C)NC(=O)Cn2c(C)cc3nc4n(c(=O)c32)CCCCC4)cc1,26,-2.92

SMILES,% Inhibition [%],Z score
O=C(c1ccc(C(F)(F)F)cc1)N1CCN([C@H]2CCN(Cc3ccccn3)C2=O)CC1,-16,2.05
CCOC1CC(OC(=O)c2cc(C)n(C)n2)C1(CC)CC (centres undefined),5,-0.72
O=C([C@H]1CCOC1)N1CCCn2nc(-c3nc4cc(F)ccc4[nH]3)cc2C1,-3,0.6
CN1CCN([C@@H]2COC3(C2)CN(C(=O)COc2ccccc2)C3)CC1,-15,2.3
CCCN(CC(=O)N1CCc2sccc2[C@@H]1COc1ccccc1OC)C(C)=O,-8,0.87
CC[C@@H](C(N)=O)N(c1ccc(C)c(Cl)c1)S(C)(=O)=O,-17,2.86
CCc1nc(CC)n(Cc2csc(CS(C)(=O)=O)n2)n1,-2,0.4
Cc1cc(C)c(C#N)c(N2CCC3(CCOCC3)CC2)n1,-8,1.53
C[C@@H](c1ccncc1)N(C)Cc1ncc[nH]1,4,-0.55
COc1cccc(CN2CCN(C(=O)CC[C@]3(Cc4ccc(C)cc4)CCC(=O)N3)CC2=O)c1,8,-1.09
CCNc1nc(C)c(C(=O)N2CCNC[C@H]2C(=O)NC2CC2)s1,-1,0.18
CC(=O)N1CC[C@H](c2ccc(F)cc2)[C@@H](NC(=O)OC(C)(C)C)C1,6,-0.66
CC(C)c1ccc(-c2c(N3CCCC3)cn[nH]c2=O)cc1,0,0.04
O=C(NCc1ccccn1)c1c[nH]c2cc(Cl)ccc2c1=O,5,-0.63
COc1ccccc1/N=C(/NC(=O)c1cccc(C)c1)N1CCN(C)CC1,-7,1.24
CCn1cnnc1CCn1cc(-c2nccs2)nn1,-6,0.68
Cc1cnn(CCNC(=O)N[C@H]2CS(=O)(=O)c3ccccc32)c1,-3,0.34
CN(C(=O)[C@@H]1Cc2cncn2C(=O)N1)C1CCCCCC1,-15,1.99
CCc1cccc(NC(=O)N(Cc2ccc(OS(=O)(=O)c3ccc(F)cc3)cc2)CC(C)C)c1,-2,0.21
CC1CCN(CCN(C)C2CCCC2S(C)(=O)=O)CC1 (centres undefined),-8,1
Cn1ncnc1NS(=O)(=O)c1ccc(C2CCCCC2)cc1,-2,0.2
CC(=O)N1CCCN(Cc2ncc(C(F)(F)F)s2)CC1,0,0.02

SMILES,% Inhibition [%],Z score
CC(C)(C)OC(=O)Nc1ncc(CNc2ccc(Cl)cn2)s1,0,-0.04
CN(C)CCN[C@@H](CC(=O)Nc1cccc(Cl)c1Cl)C(=O)O,-34,4
NCc1c(Cl)cccc1-n1cccc1CO,-10,1.17
CC(C)(C)c1nn(CC(N)=O)cc1Br,31,-3.48
CCOc1ccc(NC(=O)Nc2c(C3=CCCCC3)c(C)nn2C)cc1,-8,1.38
CC1=C(C)CN(C(=O)N[C@@H](C)c2ncc(C)o2)CC1,2,-0.24
C[C@H]1CCCN1CCNC(=O)Cc1ccc(OC(F)F)cc1,4,-0.36
COc1ccnc(CN[C@@H](C)c2ccc(C#N)cc2)c1OC,-11,1.42
CCc1noc(CN(C)CC(=O)NCc2ccco2)n1,8,-1.51
COc1ccc(OCCN2CC[C@H]3CCCC[C@H]3C2)cc1,-4,0.62
COc1ccccc1N1CCN(c2ncccc2CNC(=O)[C@H]2CCCN2)CC1,-18,1.74
O=C(c1cccnc1)N1CCC(F)(F)[C@@H](COCc2ccccc2)C1,1,-0.16
Cc1cnc(C[C@H]2CCCN(S(=O)(=O)Cc3ccccc3)C2)n1CC1CC1,7,-1.12
CC(C)Oc1cnccc1C(=O)N1CC(C)(C)[C@@H]1C1CC1,2,-0.36
Cc1onc(C(=O)NC2CCCCC2)c1C,8,-0.96
O=C(c1cccc(C(F)F)c1)N1CCN(C(=O)c2ccc3[nH]cnc3c2)CC1,6,-0.57
O=C(NCc1nnc2n1CCC2)c1ccc2ccccc2n1,-1,0.11
Cc1ccc(S(=O)(=O)Oc2cc(C)n(C)c(=O)c2)cc1,-7,1.26
Nc1ncccc1CN1CCN(c2nccc3ccccc23)C[C@@H](O)C1,-23,2.3
Cc1cc(OCC(=O)Nc2ccccc2)nnc1C,-9,1.66
NC(=O)CO[C@H]1CCC12CCN(C(=O)c1ccc(F)cc1F)CC2,-9,1.18
